Experimental data reported in the supplement of paper PMC11417369.
The other results are listed elsewhere or left out.

Tested on: PfHDP1 homeodomain (GST-tagged)
Assay: gcPBM binding intensity (ln(normalized median fluorescence intensity)); higher = stronger DNA binding
In short: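 Binding intensity is defined as the maximum Masliner-normalised natural-log median intensity across replicate spots for either probe orientation. It was measured on an Agilent 4 × 180k array of primer-extended double-stranded 36-bp intergenic genomic probes and negative controls, to which GST-tagged P. falciparum DNA-binding domains made in E. coli were applied for 1 h in 1× PBS with 1% milk, 0.2 mg/ml BSA, 0.5% salmon testes DNA and 0.03% Triton X-100. Detection was by Alexa488 anti-GST antibody and scanning at 488 nm.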

Q: With “AAAAAAAAAAAAAAAAAATACATATACATTTGTGCA [CACACA_negctrl_site1431]” as the sequence, how does the “gcPBM binding intensity (ln)” value read?
A: 6.76

Q: “TTTTTATTTATATATAAGGAAAATGCGGTATATATT [CACACA_negctrl_site1770]” was tested. Which “gcPBM binding intensity (ln)” value did it give?
A: 6.73

Q: “TAAATCCGTTTGATGGGTACATACATACATACATAT [XGTACX_site8889]” was tested. Which “gcPBM binding intensity (ln)” value did it give?
A: 6.34

Q: How did the “gcPBM binding intensity (ln)” value turn out when “TTTTTATAAGCATAAAGTACAAATATTTTTTAGTTG [XGTACX_site4140]” was run?
A: 6.15

Q: “AACACCCATGGACACACACACATATATATATATATA [CACACA_site5809]” was tested. Which “gcPBM binding intensity (ln)” value did it give?
A: 9.32

Q: Which “gcPBM binding intensity (ln)” value does the source give for “ACAATAAAATATGGCACACATATATATATATATTTA [CACACA_site3]” here?
A: 6.47

Q: “ATTTATTTTAGTAAAGCACACGTGTAAAATATATCT [CACACA_site4820]” was tested. Which “gcPBM binding intensity (ln)” value did it give?
A: 7.11

Q: Which “gcPBM binding intensity (ln)” value does the source give for “GTAATTTTTTTCTATACACACATATCTATAATATAT [CACACA_site7284]” here?
A: 6.94

Q: For “TACTTATAATTTCAATGTACATATATATAATATCAT [XGTACX_site2424]”, which “gcPBM binding intensity (ln)” value is on record?
A: 6.58

Q: For “ATTTTAAATATGGAATGTACTTAAAAAAAATTTCAT [XGTACX_site5058]”, which “gcPBM binding intensity (ln)” value is on record?
A: 6.06

Q: Which “gcPBM binding intensity (ln)” value does the source give for “ATTTCTTATTAAATTACACACAAAGTAAATAAATCT [CACACA_site3924]” here?
A: 6.44

Q: Which “gcPBM binding intensity (ln)” value does the source give for “AATTAAATATTATAAACACACATATAGATTATTTTT [CACACA_site6538]” here?
A: 6.15

Q: With “AAATACATAACTTAAAATTTGTTCATATCTATACAT [TGCATGCA_negctrl_site249]” as the sequence, how does the “gcPBM binding intensity (ln)” value read?
A: 6.38

Q: Which “gcPBM binding intensity (ln)” value does the source give for “TATAATAATATGGATTGTACATATATATTTAATTAA [XGTACX_site4327]” here?
A: 6.16

Q: How did the “gcPBM binding intensity (ln)” value turn out when “TTTTCCTTTTTTTTTACATGCAGATATAGAAAGGTA [TGCATGCA_site106]” was run?
A: 6.36

Q: “TTGTTTTGGATTATCACACATATAATATATACTCAT [CACACA_site4780]” was tested. Which “gcPBM binding intensity (ln)” value did it give?
A: 6.75

Q: How did the “gcPBM binding intensity (ln)” value turn out when “ACAAAATAAATATGAACACACACATTTATGCCTTTA [CACACA_site8346]” was run?
A: 6.08

Q: “ATAATTATACATATTACACACTCTCTTGATCTTTTT [CACACA_site3853]” was tested. Which “gcPBM binding intensity (ln)” value did it give?
A: 6.88

Q: How did the “gcPBM binding intensity (ln)” value turn out when “TATCACATATTATGATGTACAAGGTTTCTGACTAAT [XGTACX_site2763]” was run?
A: 6.14

Q: How did the “gcPBM binding intensity (ln)” value turn out when “TTTTTATACAACTTATAATACATCTGAAAATATAAA [XGTACX_negctrl_site36]” was run?
A: 6.32

Q: “TTGTCTGACTAATTTTTTTCTGTTTGTACGTTCTTA [GTGCAC_negctrl_site602]” was tested. Which “gcPBM binding intensity (ln)” value did it give?
A: 6.38

Q: Which “gcPBM binding intensity (ln)” value does the source give for “ACACAAAACAAAAAGGTGCTGTATAAATGGGTGTAT [GTGCAC_site9905]” here?
A: 7

Q: With “CATATATAAAAAAACACACACATATTTATATTTATA [CACACA_site6682]” as the sequence, how does the “gcPBM binding intensity (ln)” value read?
A: 6.58

Q: Which “gcPBM binding intensity (ln)” value does the source give for “AAAAAAATTTATAAATATTTTATTAATATATTTACC [GTGCAC_negctrl_site690]” here?
A: 6.51

Q: “CATATTTCTTACATTTGTACTTAATAAAATTAATCA [XGTACX_site7224]” was tested. Which “gcPBM binding intensity (ln)” value did it give?
A: 6.53

Q: “GATATATATATTCACACACACATGGAAATATATATA [CACACA_site382]” was tested. Which “gcPBM binding intensity (ln)” value did it give?
A: 6.64

Q: How did the “gcPBM binding intensity (ln)” value turn out when “ATATATATATGTGCCAGTACACATGTATACATTATA [XGTACX_site3899]” was run?
A: 8.3

Q: “AAAATTAATAAATAAACACACATATTTATATTTATA [CACACA_site7266]” was tested. Which “gcPBM binding intensity (ln)” value did it give?
A: 6.02

Q: “TCGTCACTTTAATATTGTACATATATATATATATAT [XGTACX_site8046]” was tested. Which “gcPBM binding intensity (ln)” value did it give?
A: 9.54

Q: How did the “gcPBM binding intensity (ln)” value turn out when “TATAAATATAGACACACACACACACCGAAGCGTAGC [CACACA_site6180]” was run?
A: 6.65

Q: Which “gcPBM binding intensity (ln)” value does the source give for “CATCCATTATTAATATGTACATATGTATATATATTA [XGTACX_site1318]” here?
A: 6.59

Q: “CACATACACATACAAACACACATTATATATATATAT [CACACA_site8460]” was tested. Which “gcPBM binding intensity (ln)” value did it give?
A: 9.02

Q: With “TTTTTTTTTTTTTTTTTTTTTTTCTTTATTTTTTTT [CACACA_negctrl_site703]” as the sequence, how does the “gcPBM binding intensity (ln)” value read?
A: 6.11

Q: “GAAAAAAAAAAAAGGGGTACATTTATTTTATCAATA [XGTACX_site8331]” was tested. Which “gcPBM binding intensity (ln)” value did it give?
A: 5.99

Q: “AATAATTATTTGTATAGTACAATATACAAAAGATGA [XGTACX_site4312]” was tested. Which “gcPBM binding intensity (ln)” value did it give?
A: 6.7

Q: “AAAATTTAAAAATGGACACACACAAAAAATAATACT [CACACA_site7972]” was tested. Which “gcPBM binding intensity (ln)” value did it give?
A: 7.14

Q: Which “gcPBM binding intensity (ln)” value does the source give for “AACTTTTTACAAACAGGTACGCATATATATATATAT [XGTACX_site5081]” here?
A: 9.41

Q: How did the “gcPBM binding intensity (ln)” value turn out when “ATATATAAAATTATATGTACATATATCTATTTATAA [XGTACX_site3713]” was run?
A: 6.44

Q: For “ACCTCACAAATGAATACACACAAACATATAGATTTA [CACACA_site6862]”, which “gcPBM binding intensity (ln)” value is on record?
A: 7.08

Q: “GATTAAAACTTTAACTGTACATAATAATTATCAATC [XGTACX_site5938]” was tested. Which “gcPBM binding intensity (ln)” value did it give?
A: 6.31

Q: “TTTAAAATTTCTTAATGTACGTAATAAAAAAAAAAA [XGTACX_site4037]” was tested. Which “gcPBM binding intensity (ln)” value did it give?
A: 6.36

Q: With AATATTGTTCACAAGGTGCTTTTTATTCATACTAAT as the sequence, how does the “gcPBM binding intensity (ln)” value read?
A: 6.22

Q: For “TATGTATAACTCAATGCATGCGAAGGACTATTATTT [TGCATGCA_site222]”, which “gcPBM binding intensity (ln)” value is on record?
A: 6.47

Q: Which “gcPBM binding intensity (ln)” value does the source give for “TATATCTACTTAAAAAGTACGTAAATTATAAGCTAT [XGTACX_site6420]” here?
A: 5.98

Q: “TGTGTAAATATGTATACACACATATCTGATCAATAT [CACACA_site7507]” was tested. Which “gcPBM binding intensity (ln)” value did it give?
A: 6.62

Q: “TATATGTATTTATATACACACATATTCTTTTTACAC [CACACA_site8320]” was tested. Which “gcPBM binding intensity (ln)” value did it give?
A: 6.69

Q: Which “gcPBM binding intensity (ln)” value does the source give for “AATATTTTGAACAACAGTACTCTTTCTTTCTTTCTT [XGTACX_site7212]” here?
A: 6.28

Q: For “TCCTTTTCATCTTGTAGTACGGAAATGTAGCTCCAA [XGTACX_site8563]”, which “gcPBM binding intensity (ln)” value is on record?
A: 6.58

Q: How did the “gcPBM binding intensity (ln)” value turn out when “TGCATATGCATTATTTGTACATATGTAGATAATTAT [XGTACX_site6930]” was run?
A: 6.81

Q: How did the “gcPBM binding intensity (ln)” value turn out when “CATATATAGATATATACACACATACATACATACATA [CACACA_site7748]” was run?
A: 6.69

Q: How did the “gcPBM binding intensity (ln)” value turn out when “AAAAATTACAAATACAAACACACAAATGTTTTTCAT [CACACA_site3551]” was run?
A: 6.27

Q: Which “gcPBM binding intensity (ln)” value does the source give for “AATAAAATAAATATATGTACATATATATAACCATTA [XGTACX_site5549]” here?
A: 6.47

Q: With “AGAGAAAGAAGGGAGAAAAAATAAAATAAAATAAAA [GTGCAC_negctrl_site299]” as the sequence, how does the “gcPBM binding intensity (ln)” value read?
A: 6.43

Q: With “AATAAAAAAAAACTCATGCACACAATATTATGAAAA [CACACA_site664]” as the sequence, how does the “gcPBM binding intensity (ln)” value read?
A: 8.71

Q: Which “gcPBM binding intensity (ln)” value does the source give for “TTTTAATGATATATGAGTACACATTGTTTTTTATAA [XGTACX_site1072]” here?
A: 6.44

Q: How did the “gcPBM binding intensity (ln)” value turn out when “ATATAATGATGGAAAAGAAAAGAAATAAAAAAAAAA [CACACA_negctrl_site1170]” was run?
A: 6.17
